Laboratory results taken from publication PMC6919601, “Identification of Plasmodium dipeptidyl aminopeptidase allosteric inhibitors by high throughput screening” (PLoS ONE, 2019).
Out of some 110,000 compounds screened, about 230 (0.21%) showed an effect of 50% or more. Some of the results follow.

The compounds below were run against DPAP1 (Plasmodium falciparum, UniProt Q8IIJ9) (assay: primary screen, percent inhibition; read by cleavage of a fluorogenic dipeptide substrate; higher = more effect of the substance).
Parameters: species or system P. falciparum D10 trophozoite lysates; single well
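Further: 30 min substrate incubation versus DMSO and 10 µM JCP410 controls.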

DPAP1, sequence (Q8IIJ9 whole entry, looked up): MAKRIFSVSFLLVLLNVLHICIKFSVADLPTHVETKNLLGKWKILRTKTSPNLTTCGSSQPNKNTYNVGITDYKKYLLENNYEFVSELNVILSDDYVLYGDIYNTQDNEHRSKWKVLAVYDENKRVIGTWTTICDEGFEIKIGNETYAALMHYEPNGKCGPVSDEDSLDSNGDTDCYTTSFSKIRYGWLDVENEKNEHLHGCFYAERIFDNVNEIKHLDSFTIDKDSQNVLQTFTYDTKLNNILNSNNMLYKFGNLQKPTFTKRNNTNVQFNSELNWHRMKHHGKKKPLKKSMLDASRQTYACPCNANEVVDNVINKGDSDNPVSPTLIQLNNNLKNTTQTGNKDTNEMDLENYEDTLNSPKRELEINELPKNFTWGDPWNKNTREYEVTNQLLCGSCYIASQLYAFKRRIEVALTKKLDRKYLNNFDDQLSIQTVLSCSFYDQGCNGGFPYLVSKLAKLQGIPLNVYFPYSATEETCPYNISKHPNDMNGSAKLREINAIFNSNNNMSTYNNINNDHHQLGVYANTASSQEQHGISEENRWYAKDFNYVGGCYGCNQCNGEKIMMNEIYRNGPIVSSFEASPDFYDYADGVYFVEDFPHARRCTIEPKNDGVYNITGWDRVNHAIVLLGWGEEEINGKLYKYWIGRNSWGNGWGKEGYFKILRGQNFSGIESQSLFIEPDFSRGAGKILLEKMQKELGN

Compound	% Inhibition @ 10 uM
Cc1ccc(S(=O)(=O)N2CCc3ccccc3C2)cc1[N+](=O)[O-]	0.215%
CC1=NN(C(=O)c2ccccc2)C(O)(c2ccc(Cl)cc2)C1 (stereo not shown)	-3.09%
O=C(Nc1ccc(Cl)cc1)N1CCc2ccccc21	3.24%
CC1=CC(C)C(C2OCCN2CC2COC3(CCCCC3)O2)C(C)C1 (stereo not shown)	-9.49%
CC1=CCC(C(=O)O)C(C(=O)NCc2ccc3c(c2)OCO3)C1 (stereo not shown)	-2.98%
C=CCN1C(=O)c2oc3cc(C)cc(C)c3c(=O)c2C1c1ccccc1F (stereo not shown)	1.67%
CC(C)=C(NC(=O)c1ccccc1)C(=O)NCCCC(=O)O	4.38%
COc1ccccc1Oc1nc2c(C)cccn2c(=O)c1/C=C(\C#N)C(=O)N1CCCCC1	-5.1%
CS(=O)(=O)c1ncc(Cl)c(C(=O)Nc2nnc(SCc3ccc(F)cc3)s2)n1	5.29%
COc1ccc(-c2nc(-n3c(C)c(C(C)=O)c(C(C)=O)c3C)sc2C)cc1OC	-4.62%
CCN(CC)C(=O)/C(=C/c1cn(CC)c2ccccc12)NC(=O)c1ccco1	3.24%
COc1cc(-c2nc(SCC(=O)NC3CCCC3)c(-c3ccccc3)[nH]2)cc(OC)c1OC	5.06%
O=C1S/C(=C\c2cc(Cl)ccc2O)C(=O)N1Cc1ccc(F)cc1	5%
O=C(NCCCNCCCNC(=O)c1ccncc1)c1ccncc1	-9.83%
COc1ccccc1OC1OCC(O)C(O)C1O (stereo not shown)	6.06%
CC(C)c1nnc(NC(=O)c2ccc(C(=O)C(=O)c3ccccc3)cc2)s1	-1.06%
COc1ccc(S(=O)(=O)N(CC(=O)N2CCCCC2)c2cc(Cl)ccc2OC)cc1OC	-1.59%
CC(C)C[C@H](NC(=O)c1ccc(N(C)C)nc1)C(=O)NCC#N	2.22%
N#CCNC(=O)C(CC1CCCCC1)C(=O)NCc1cccc([N+](=O)[O-])c1 (stereo not shown)	-8.82%
COCCN(CCOC)c1ncnc2c1cnn2-c1ccccc1	6.74%
COc1ccc(C(=O)c2c[nH]cn2)cc1	-4.75%
CCC(C)c1ccc(OCCOc2ccc(C=C3C(=O)NC(=O)NC3=O)cc2)cc1 (stereo not shown)	4.55%

Compound	% Inhibition @ 10 uM
C1CCN(CCNC2C3CC4CC(C3)CC2C4)CC1 (stereo not shown)	-4.75%
COCCCNC(=O)CCCCCNS(=O)(=O)c1ccc(Br)cc1	2.84%
CC(=O)NC(Cc1ccccc1F)C(=O)N[C@@H](CCc1ccccc1)C(=O)c1nc2ccccc2o1 (stereo partly shown)	-6.98%
CC1=C(C(=O)OCCOc2ccccc2)C(c2ccsc2)NC(=O)N1C (stereo not shown)	0.289%
O=C(Nc1ccc2oc(-c3ccc(F)cc3)nc2c1)c1ccccc1	-15.9%
Cc1nc2ccc(S(=O)(=O)N(C)CC(=O)N3CCN(C4CCCCC4)CC3)cc2s1	1.15%
CC(NC(=O)C(=O)NCc1ccco1)c1ccccc1 (stereo not shown)	0.131%
CCOc1ccccc1C(=O)Nc1ccccc1OC	-1.21%
O=C(NCc1ccc(Cl)cc1)Nc1cccs1	0.596%
Cc1ccc(C(=O)C2=C(N)OC3=C(C(=O)CC(C)(C)C3)C2c2ccccc2Cl)cc1 (stereo not shown)	-6.6%
O=C(Cn1cnc2onc(-c3ccc(Cl)cc3)c2c1=O)NCCC1=CCCCC1	3.54%
O=C(O)c1ccccc1C(=O)Nc1ccc(O)cc1	-4.96%
O=C(O)c1ccc(CS(=O)(=O)c2ccccc2)o1	-0.657%
COc1ccccc1CC(=O)N(Cc1nc(-c2ccc(Cl)cc2)no1)C(C)C	-2.75%
Cc1sc2ncn(CC(=O)NCc3ccccn3)c(=O)c2c1S(=O)(=O)N1CCOCC1	-0.363%
C=CCNC(=O)c1sc2nc(C)c(Cl)c(C)c2c1N	2.99%
CCOC(=O)c1ccccc1NC(=O)c1cccc(OC)c1	-3.65%
Cc1ccc(Cc2c(C)nc3c(C(=O)N4CCc5ccccc5C4)cnn3c2C)cc1	-4.06%
CCCCNc1ncnc2sc3c(c12)CCCC3	-2.18%
COC(=O)c1ccc(CN2CCN(c3ccccc3)CC2)cc1	1.62%
Cc1ccc(N2C(=O)CC(NCc3ccc4c(c3)OCO4)C2=O)cc1 (stereo not shown)	-9.2%
CCOc1ccc(CCNC(=O)c2nn(C)c3c2CS(=O)(=O)c2ccccc2-3)cc1	-0.205%

Compound	% Inhibition @ 10 uM
Cc1nn(Cc2ccc(Cl)c(Cl)c2)c(C)c1NC(=O)c1ccc2c(c1)OCO2	-8.56%
Cc1cc(C)cc(NC(=O)C2COc3ccccc3O2)c1 (stereo not shown)	-2.74%
O=Cc1cn(CCOc2ccccc2)c2ccccc12	-0.971%
CCC(C)(C)C(=O)N1CCN(c2ccccc2)CC1	-3.19%
CS(=O)(=O)c1ccc(-c2nnn(CC(=O)NCc3ccc(F)cc3)n2)cc1	-3.07%
O=C(CCc1ccccc1)Nc1ccccc1NC(=O)CCc1ccccc1	4.57%
O=C(Nc1ccc(NC(=O)c2ccc(Cl)cc2Cl)cc1)c1ccccc1F	0.177%
COc1ccccc1Nc1cccc2nonc12	-0.996%
CCOC(=O)c1c(NC(=O)C2=C(C)N=C3CCCC(O)=C3C2c2cccnc2)sc2c1CCCC2 (stereo not shown)	5.76%
Cc1sc(NC(=O)c2cccnc2Cl)nc1-c1ccccc1	20.2%
CC1=CC(C)(C)N(C(=O)c2ccc([N+](=O)[O-])cc2)c2ccccc21	-2.42%
Cc1nnc(NC(=O)CSc2nnc(-c3ccco3)c(-c3ccco3)n2)s1	-0.386%
COc1cccc(C(O)c2cnc(C(C)C)n2C)c1OC (stereo not shown)	-3.32%
COc1ccc(CN2C(=O)CS/C2=N/N=C/c2cccs2)cc1	0.279%
CC(C)NC(=O)C1CCN(c2cnccn2)CC1	-0.946%
C=CC1CCC(O)C(N(Cc2ccccc2)S(=O)(=O)c2ccc3ccccc3c2)C1 (stereo not shown)	0.906%
CCOCCCNC(=O)C1CCN(c2nnc(C)c3c(C)n(-c4ccc(C)cc4)nc23)CC1	4.4%
CCCCSc1nnc(-c2ccc(Br)cc2)o1	11.7%
CCc1ccc(N2C(=O)C(Cl)=C(Nc3ccccc3OC)C2=O)cc1	-2.88%
NC(=O)c1ccccc1NC(=O)C1CC=CCC1C(=O)O (stereo not shown)	1.15%
